Measurements as given in paper PMC4336329 (PLoS ONE, 2015).
Among all 310,000 compounds or so, about 2,200 (0.71%) showed an effect of 50% or more. Effects have a minus sign here. Some of the results follow.

Each compound was assayed against human ether-à-go-go-related gene (hERG) potassium channel (human, UniProt Q12809) (assay: primary screen, population patch clamp on CHO cells stably expressing hERG).
human ether-à-go-go-related gene (hERG) potassium channel, sequence (Q12809 whole entry, looked up): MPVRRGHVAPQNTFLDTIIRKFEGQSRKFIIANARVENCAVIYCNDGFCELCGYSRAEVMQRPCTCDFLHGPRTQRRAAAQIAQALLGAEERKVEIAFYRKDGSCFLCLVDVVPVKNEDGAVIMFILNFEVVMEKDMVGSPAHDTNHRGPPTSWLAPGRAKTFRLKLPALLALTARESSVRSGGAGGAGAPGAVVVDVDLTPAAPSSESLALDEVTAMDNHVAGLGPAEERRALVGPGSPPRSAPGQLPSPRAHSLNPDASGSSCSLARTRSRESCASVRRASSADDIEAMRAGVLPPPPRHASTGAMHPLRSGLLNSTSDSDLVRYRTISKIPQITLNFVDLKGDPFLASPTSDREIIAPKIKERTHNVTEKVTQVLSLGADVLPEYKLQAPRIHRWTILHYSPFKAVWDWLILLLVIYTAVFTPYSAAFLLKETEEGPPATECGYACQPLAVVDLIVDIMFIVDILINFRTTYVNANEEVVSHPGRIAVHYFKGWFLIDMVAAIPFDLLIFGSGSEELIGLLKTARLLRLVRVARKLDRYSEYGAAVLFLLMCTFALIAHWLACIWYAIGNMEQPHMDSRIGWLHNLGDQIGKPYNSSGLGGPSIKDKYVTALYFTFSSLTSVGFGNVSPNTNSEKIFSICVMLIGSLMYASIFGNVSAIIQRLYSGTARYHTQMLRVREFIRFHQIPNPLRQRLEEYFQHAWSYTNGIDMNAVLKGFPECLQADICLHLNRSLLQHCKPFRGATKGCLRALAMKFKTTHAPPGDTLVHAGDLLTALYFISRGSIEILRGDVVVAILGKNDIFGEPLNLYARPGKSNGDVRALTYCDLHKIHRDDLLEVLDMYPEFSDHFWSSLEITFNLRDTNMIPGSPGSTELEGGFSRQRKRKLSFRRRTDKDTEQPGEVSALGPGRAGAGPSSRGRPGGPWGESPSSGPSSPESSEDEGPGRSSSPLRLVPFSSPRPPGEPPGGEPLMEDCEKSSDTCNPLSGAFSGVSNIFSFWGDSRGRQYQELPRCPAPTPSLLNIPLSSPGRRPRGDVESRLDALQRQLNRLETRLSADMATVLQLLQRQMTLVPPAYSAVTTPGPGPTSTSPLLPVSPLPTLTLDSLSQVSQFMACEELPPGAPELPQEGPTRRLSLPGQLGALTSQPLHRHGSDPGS
O=C(NCc1ccco1)c1ccc(N2CCOCC2)c([N+](=O)[O-])c1 was tested, and the “hERG current change (%, negative = inhibition) at 1uM” value was 12.3%. For COc1ccc(-c2nc(NC(=O)C3CC(=O)N(c4ccc5c(c4)OCCO5)C3)sc2C)cc1 (stereo not shown), the “hERG current change (%, negative = inhibition) at 1uM” value was 18%. For CCn1c(SCC(=O)NCCc2ccccc2)nc2c([nH]c3ccccc32)c1=O, the “hERG current change (%, negative = inhibition) at 1uM” value was 16.4%. With O=C1CN(C(=O)CSc2nc3ccccc3n2CCc2ccccc2)c2ccccc2N1 the “hERG current change (%, negative = inhibition) at 1uM” value was 11.2%. With Cc1ccc(CN2CCC(Oc3cccc(C(=O)NCc4cccnc4)c3)CC2)o1 the “hERG current change (%, negative = inhibition) at 1uM” value was 8.19%. For CNS(=O)(=O)c1cc(OC)c(OC)cc1CC(=O)OC, the “hERG current change (%, negative = inhibition) at 1uM” value was 10.5%. In the case of COc1ccc(S(=O)(=O)NCc2ccc3c(c2)cc(C)n3C)cc1, the “hERG current change (%, negative = inhibition) at 1uM” value is reported as 3.39%. Clc1cccc(-c2nc(NCCN3CCOCC3)c3ccccc3n2)c1 was tested, and the “hERG current change (%, negative = inhibition) at 1uM” value was -1.75%. In the case of Cc1sc2nc(CN3CCOCC3)nc(N3CCC(C(N)=O)CC3)c2c1C, the “hERG current change (%, negative = inhibition) at 1uM” value is reported as 12.5%. For Cc1cccc(C)c1N=Nc1c(C)cc(O)cc1C, the “hERG current change (%, negative = inhibition) at 1uM” value was 16.3%. CC(C)Cn1c(CN2CCN(C)C(CCO)C2)nc2ccccc21 (stereo not shown) was tested, and the “hERG current change (%, negative = inhibition) at 1uM” value was 12.7%. With Br.CCC1CC(CSC(=N)N)OC1=O (stereo not shown) the “hERG current change (%, negative = inhibition) at 1uM” value was 8.09%. For O=C1C2C3C=CC(C2C(=O)N1CCO)C1C(=O)N(CCO)C(=O)C31 (stereo not shown), the “hERG current change (%, negative = inhibition) at 1uM” value was 4.85%. CCOC(=O)COc1coc(CN2CCN(c3cccc(Cl)c3)CC2)cc1=O was tested, and the “hERG current change (%, negative = inhibition) at 1uM” value was 7.82%. With Cc1ccc(-c2cc(=O)c3ccc(F)cc3[nH]2)cc1 the “hERG current change (%, negative = inhibition) at 1uM” value was 6.71%. For O=C(CC(C(=O)O)c1c(F)cccc1Cl)c1ccc(Cl)cc1 (stereo not shown), the “hERG current change (%, negative = inhibition) at 1uM” value was 17.6%. CC(NCc1ccccc1Cl)C(O)c1ccccc1.Cl (stereo not shown) was tested, and the “hERG current change (%, negative = inhibition) at 1uM” value was 10.7%. With CCN1CCN(C(=O)c2ccc3c(c2)N(Cc2ccccc2F)C(=O)c2ccccc2S3(=O)=O)CC1 the “hERG current change (%, negative = inhibition) at 1uM” value was 11.8%. For CSc1ccccc1OCc1cc(C(=O)NCc2cnc(C)cn2)no1, the “hERG current change (%, negative = inhibition) at 1uM” value was 3.44%. With Cc1ccc(S(=O)(=O)N(C)C)cc1NC(=O)c1ccc2ccccc2n1 the “hERG current change (%, negative = inhibition) at 1uM” value was 10.9%. In the case of CCCN(CCC)C1=N/C(=C\c2ccco2)C(=O)N1c1ccccc1, the “hERG current change (%, negative = inhibition) at 1uM” value is reported as 3.36%. For Cc1ccc(N2C(=O)Nc3ccccc3C2(O)C(=O)NCCCOC(C)C)cc1C (stereo not shown), the “hERG current change (%, negative = inhibition) at 1uM” value was 11.4%. In the case of COCc1cc(C)nc(SCC(=O)Nc2cc3c(cc2C#N)OCO3)c1C#N, the “hERG current change (%, negative = inhibition) at 1uM” value is reported as 10.9%. COc1cc(/C=N/N2C(C)CCCC2C)cc(Br)c1O (stereo not shown) was tested, and the “hERG current change (%, negative = inhibition) at 1uM” value was 9.73%. CCCn1c(SCC(=O)Nc2nnc(-c3ccccc3)s2)nnc1-c1ccccn1 was tested, and the “hERG current change (%, negative = inhibition) at 1uM” value was 10%. Cc1cccc(-n2c(C)c(C)c3c(N)ncnc32)c1 was tested, and the “hERG current change (%, negative = inhibition) at 1uM” value was 12.6%. For CCN(CC)C(=O)C1CCCN(c2ccc([N+](=O)[O-])cc2/C=N/NC(=O)c2ccc([N+](=O)[O-])cc2)C1 (stereo not shown), the “hERG current change (%, negative = inhibition) at 1uM” value was 2.1%. For O=C(NNC1=NS(=O)(=O)c2ccccc21)c1ccc(Cl)cc1, the “hERG current change (%, negative = inhibition) at 1uM” value was 4.24%. O=C(COC(=O)C1CCN(S(=O)(=O)c2ccc3c(c2)OCCO3)CC1)NC1CCS(=O)(=O)C1 (stereo not shown) was tested, and the “hERG current change (%, negative = inhibition) at 1uM” value was 3.6%. In the case of Cc1cc(NC(=O)COC(=O)c2c(C)nn(Cc3ccccc3)c2Cl)no1, the “hERG current change (%, negative = inhibition) at 1uM” value is reported as 3.78%. COCC(=O)Nc1cc(Cl)ccc1C was tested, and the “hERG current change (%, negative = inhibition) at 1uM” value was 8.21%. In the case of CN1CCN(c2ccccc2NS(=O)(=O)c2ccc3c(c2)CCN3C(=O)C2CCC2)CC1, the “hERG current change (%, negative = inhibition) at 1uM” value is reported as 6.36%. COc1ccc(C(=O)N2CCC3(CC2)NCCc2[nH]cnc23)cc1 was tested, and the “hERG current change (%, negative = inhibition) at 1uM” value was 12.4%. For COc1cccc(C(=O)NC2CCSC2=O)c1 (stereo not shown), the “hERG current change (%, negative = inhibition) at 1uM” value was 15.2%. In the case of O=C(c1cc(Br)ccc1Cl)N1CCCC1, the “hERG current change (%, negative = inhibition) at 1uM” value is reported as 10.6%. In the case of Cc1onc(-c2ccccc2)c1C(=O)N1CCN(c2ccccc2F)CC1, the “hERG current change (%, negative = inhibition) at 1uM” value is reported as 11.9%. COc1ccc(NC(=O)Cn2nnc(-c3ccccc3F)n2)cc1Cl was tested, and the “hERG current change (%, negative = inhibition) at 1uM” value was 13.6%. In the case of COC(=O)c1ccc(CN2CCCC(CNC(=O)Cc3ccc(OC)cc3)C2)cc1 (stereo not shown), the “hERG current change (%, negative = inhibition) at 1uM” value is reported as 6.39%. In the case of COc1ccccc1/C=C/C=N/NC(=O)c1cc(-c2ccco2)[nH]n1, the “hERG current change (%, negative = inhibition) at 1uM” value is reported as 6.15%. O=c1[nH]c(=S)[nH]c(O)c1N=Nc1cc2c(cc1[N+](=O)[O-])OCO2 was tested, and the “hERG current change (%, negative = inhibition) at 1uM” value was 7.82%. CC(=O)c1cccc(NC(=O)C2C3C=CC(C3=C(c3ccccc3)c3ccccc3)C2C(=O)O)c1 (stereo not shown) was tested, and the “hERG current change (%, negative = inhibition) at 1uM” value was 1.89%. With O=C(Nc1ccc(Cl)c(C(=O)N2CCOCC2)c1)c1ccccc1 the “hERG current change (%, negative = inhibition) at 1uM” value was -3.54%. C=C1CCN([C@@H](Cc2ccccc2)C(=O)Nc2ccc(OC)cc2)S(=O)(=O)c2ccccc21 was tested, and the “hERG current change (%, negative = inhibition) at 1uM” value was 11.6%. With COc1ccc(/C=N/NC(=O)CNc2ccc(Br)cc2)c(C(=O)O)c1OC the “hERG current change (%, negative = inhibition) at 1uM” value was 6.6%. With CN(C)C(=O)Oc1ccc(OCc2n(C)c3ccccc3[n+]2C)cc1.[Cl-] the “hERG current change (%, negative = inhibition) at 1uM” value was 2.84%. In the case of Cc1ccc(-c2nnn(CC(=O)N(CCO)C(C(=O)NC(C)(C)C)c3ccncc3)n2)cc1 (stereo not shown), the “hERG current change (%, negative = inhibition) at 1uM” value is reported as 8.43%. In the case of CCOC(=O)c1c(C)[nH]c(C)c1C(=O)COC(=O)c1c(OC)cccc1OC, the “hERG current change (%, negative = inhibition) at 1uM” value is reported as 11.1%. In the case of O=C(/C=C/c1ccco1)N1CCC(Cc2ccccc2)CC1, the “hERG current change (%, negative = inhibition) at 1uM” value is reported as 2.46%. NC(=O)CC(NC(=O)c1ccccc1)c1ccc(N2CCC(N3CCCC3)CC2)c([N+](=O)[O-])c1 (stereo not shown) was tested, and the “hERG current change (%, negative = inhibition) at 1uM” value was 10.5%. N#CC1=C(N)C(C#N)(C#N)[C@H](c2ccncc2)[C@H]2CN(C(=O)OCc3ccccc3)CC=C12 was tested, and the “hERG current change (%, negative = inhibition) at 1uM” value was 2.86%. In the case of CCOc1ccc(NS(=O)(=O)c2ccc3[nH]c(=O)[nH]c3c2)cc1, the “hERG current change (%, negative = inhibition) at 1uM” value is reported as 24.2%. In the case of Cc1ccc(/C=N/NC(=O)c2ccc3nc[nH]c3c2)s1, the “hERG current change (%, negative = inhibition) at 1uM” value is reported as 9.64%. For CN(C)c1ccc(NC(=O)CCN2C(=O)c3cccc([N+](=O)[O-])c3C2=O)cc1, the “hERG current change (%, negative = inhibition) at 1uM” value was 7.72%. For O=C(CNC(=O)c1ccccc1F)NCC(c1cccs1)N1CCOCC1 (stereo not shown), the “hERG current change (%, negative = inhibition) at 1uM” value was 3.5%. CCN1CCN(Cc2c(O)ccc3c2O/C(=C\c2ccc(C)cc2)C3=O)CC1 was tested, and the “hERG current change (%, negative = inhibition) at 1uM” value was 1.33%.
